Among all 44,000 compounds or so, about 340 (0.77%) were called active. Another 5% or so got no clear call; they are omitted. The call rests on the fitted dose curve; in most records, active means well fitted inhibition curve with a large enough effect; inconclusive means small, poorly fitted or top-dose-only effect; inactive means flat fitted curve, though single readings scatter. Some of the results follow.
Experiment: Acumen qHTS Assay for Inhibitors of the mTORC1 Signaling Pathway in MEF (Tsc2-/-, p53-/-) Cells: Sytravon;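 further: plate controls were DMSO for no effect and rapamycin for full effect; nearly all actives have a fitted effect of over 50% in size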
Details: phospho-rpS6 immunofluorescence/PI, 24 h; series mostly up to 38.3 µM; activity change, negative = inhibition: at the top concentration
In short: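 Read-out: phospho-S6 Alexa-488 intensity over PI intensity per well, scored as % active cells using thresholds from rapamycin (7.5 nM) and DMSO controls. Tsc2-/-, p53-/- MEFs exposed to compound for 24 h; PI cell count recorded as viability.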

SMILES	activity change, negative = inhibition
CCCCNc1nc2c(c(=O)n(Cc3ccccc3)c(=O)n2C)n1C	inactive: -10.1%
COc1ccc(N(C)C(=O)c2cc3c(s2)-c2ccccc2OC3)cc1	inactive: -5.65%
Cc1cc(C(=O)Nc2cccc(C)c2C)c2c(C)nn(-c3cccc(F)c3)c2n1	inactive: -2.62%
COc1cc(OC)c(OC)cc1/C=C/c1nc2ccccc2c(=O)n1-c1ccc(Br)c(C)c1	inactive: 7.62%
O=C(c1ccc(Cl)cc1)c1cn(Cc2ccccc2)c2cc3c(cc2c1=O)OCCO3	inactive: 2.21%
Cc1ccc(NC(=O)Cn2c(=O)ccc3cc(S(=O)(=O)N4CCCC4)ccc32)cc1N(C)C	inactive: -18.8%
O=C(NCc1ccc(Cl)cc1)c1ccc2c(c1)N(Cc1ccccc1F)C(=O)c1ccccc1S2=O (stereo not drawn)	inactive: -13.1%
CCc1ccc(CNC(=O)c2ccc(CS(=O)(=O)Cc3cccc(C)c3)o2)cc1	inactive: 11.7%
CC(=O)Nc1ccc(S(=O)(=O)N(Cc2ccccc2)Cc2ccccc2)cc1	inactive: 0.603%
CCOc1ccccc1-c1nc(C(N)=O)c2c(n1)n(-c1ccc3c(c1)OCO3)c(=O)n2C	inactive: 6.47%
CCn1c(=O)cc(SCC(=O)NCc2ccc(C)cc2)c2ccccc21	inactive: -3.56%
C=Cc1ccc(Cn2c(=O)n(CC3CCC(C(=O)NC(C)C)CC3)c(=O)c3sccc32)cc1 (stereo not drawn)	inactive: 0.918%
O=C(NCc1ccco1)c1ccc2c(c1)N(Cc1ccccc1F)C(=O)c1ccccc1S2(=O)=O	inactive: -4.11%
CCCCNC(=O)c1ccc2c(c1)NC(=O)C(CS(=O)(=O)Cc1ccc(F)cc1Cl)N2 (stereo not drawn)	inactive: -10.7%
COc1cccc(NC(=O)CCN2CCN(CCO)CC2)c1	inactive: 10%
COc1cccc(-c2ccc3c(N)c(C(=O)Nc4ccccc4C)sc3n2)c1	inactive: 0.441%
CC(C)CCNC(=O)c1ccc2c(c1)nc1n2CCCCC1	inactive: 0%
CCCC(=O)Nc1ccc2nc(SCc3ccc(C)cc3)sc2c1	inactive: -14.5%
COCCNc1ccc(-c2nc(-c3ccccn3)no2)cc1[N+](=O)[O-]	inactive: 2.04%
Nc1ccc2oc(Cc3ccc(Cl)cc3)nc2c1	inactive: -1.85%
COc1ccc(C)cc1NC(=O)Cc1c(C(=O)O)c(C)cn1C	inactive: -1.69%
CC(=O)c1cccc(NC(=O)CSc2nc3c(=O)n(C)c(=O)n(C)c3n2C)c1	inactive: 0.327%
CC(C)CCn1c(=O)c2sccc2n2c(CCCC(=O)NC(C)c3ccccc3)nnc12 (stereo not drawn)	inactive: -0.899%
Cc1cccc(OCC(=O)Nc2ccccc2C(=O)OCc2cc(=O)n3nc(C4CC4)sc3n2)c1	inactive: 0%

SMILES	activity change, negative = inhibition
Cc1cccc(N2CCN(c3nc4ccccc4c4nc(-c5cccnc5)nn34)CC2)c1C	inactive: -4.17%
Cc1ccc(CCNC(=O)c2cc3c(=O)n(C)c4ccccc4c3n2C)cc1	inactive: 8.4%
Cc1ccc2cc3cc(C(=O)N(C)c4ccccc4C)oc3nc2c1	inactive: -9.34%
CCc1cccc(N2C(=O)N(Cc3c(F)cccc3Cl)c3ccccc3S2(=O)=O)c1	inactive: 1.47%
CCn1cc(C(=O)Nc2ccc(C(C)C)cc2)c2cc(OC)c(OC)cc2c1=O	inactive: 0.131%
CCc1cnc2c(c1SCCC(C)C)c(=O)n(C)c(=O)n2C	inactive: 0.327%
CCOC(=O)c1ccc(NC(=O)c2c(NCc3cc(OC)ccc3OC)sc3c2CCC3)cc1	inactive: -6%
Cc1cccc(C)c1NC(=O)CN1C(=O)c2ccccc2Sc2ncccc21	inactive: 8.11%
COC(=O)c1cc2sc(C)cc2n1CC(=O)Nc1ccc(C)cc1Cl	inactive: -7.67%
CC(=O)c1cc(-c2ccccc2)n(CC(=O)NCc2ccccc2C)c1C	inactive: -1.99%
CC(C)OCCCNC(=O)c1nn(C)c2c1CSc1ccccc1-2	inactive: -17.8%
CCCOC(=O)c1ccc(Nc2c(C(=O)OCC)cnc3c(C)cc(Cl)cc23)cc1	inactive: 1.32%
COc1ccc(-c2noc(CSc3nnc(-c4ccccc4)n3C)n2)cc1	inactive: -12.8%
Cc1oc2c(cc(NS(=O)(=O)c3ccc(F)cc3)c3ccccc32)c1C(=O)OCc1ccccc1	inactive: 0.16%
COc1ccc(C)cc1NC(=O)CN1CCN(S(=O)(=O)c2ccc(Br)cc2)CC1	inactive: 2.92%
COc1ccc(NC(=O)C2CCC(CNS(=O)(=O)c3cccs3)CC2)cc1OC (stereo not drawn)	inactive: -2%
Clc1ccccc1-c1nnc(-c2ccccc2CNc2ccccc2)o1	inactive: -10%
COc1ccccc1CNC(=O)c1cc2ccc3ccc(C)[nH]c3c2n1	inactive: 0%
Cc1ccccc1CSCCNC(=O)CN(c1ccccc1)S(=O)(=O)N(C)C	inactive: -2.92%
CCN1CCc2c(sc(-n3cccc3)c2C(C)NC(=O)Nc2ccccc2C)C1 (stereo not drawn)	inactive: 1.84%
Cc1cccc(CC(=O)Nc2cccc(-c3nc4cccnc4s3)c2)c1	inactive: -6.87%
CCn1nnc2cc(C(=O)Nc3cccc(C)c3C)ccc21	inactive: -12.1%
Cc1ccc(C)c(N2CCN(S(=O)(=O)c3csc(C(N)=O)c3)CC2)c1	inactive: -10.9%
Cc1cccc(Oc2ccc(NC(=O)CCC(=O)OCC(=O)c3ccc(Br)cc3)cc2)c1C	inactive: -8.75%
